“And” between values parts separate entries of the source, which are not always exact repeats. Equal values may be shown once. Among all 360,000 compounds or so, about 2,600 (0.72%) were called active. This list was built around the results that the source calls inconclusive (neither active nor inactive); the mix of calls is not that of the screen. The call rests on the fitted dose curve; in most records, active means well fitted inhibition curve with a large enough effect; inconclusive means small, poorly fitted or top-dose-only effect; inactive means no such curve, though single readings can be large or run the other way. Where the call is inconclusive, the potency comes from a doubtful curve fit.
Assay: Primary qHTS for Inhibitors of ATXN expression; further: nearly all actives have a fitted effect of over 55% in size
Conditions: HEK-293 ATXN2-luciferase reporter, luminescence, 24 h; activity change, negative = inhibition: at 57 µM (top of the series)
How it was run: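 qHTS (up to 57 uM final) was run with 24 h compound exposure of reporter cells at 37 °C. Each well was multiplexed: SteadyGlo luminescence measured ATXN2-luciferase expression after a fluorogenic Gly-Phe-AFC viability readout (25 uM final).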
For Cc1ccccc1[C@H](NC1c2ccccc2C=Cc2ccccc21)P(=O)(c1ccccc1)c1ccccc1, the Potency was inconclusive: 31.6 µM [inhibitor, single point].
In the case of CCCNC(=S)N1CCC(Cc2ccccc2)CC1, the Potency is reported as inconclusive: 11.2 µM [inhibitor, partial curve, poor fit].
With Cc1ccccc1-n1c(SCC(=O)NCC2CCCO2)nnc1-c1ccncc1 (stereo not drawn) the “activity change, negative = inhibition” value was inactive: 5.85%.
In the case of CCC(C)n1ncn(-c2ccc(N3CCN(c4ccc(OC[C@H]5CO[C@](Cn6cncn6)(c6ccc(Cl)cc6Cl)O5)cc4)CC3)cc2)c1=O (stereo partly drawn), the Potency is reported as inconclusive: 7.94 µM [inhibitor, partial curve, poor fit].
In the case of CCC(C(=O)O/N=C(\N)c1ccccc1)c1ccccc1 (stereo not drawn), the “activity change, negative = inhibition” value is reported as inactive: 5.03%.
For COC(=O)C1CCN(C2CN(Cc3ccccc3)S(=O)(=O)C2)CC1 (stereo not drawn), the “activity change, negative = inhibition” value was inactive: -3.05%.
In the case of CS(=O)(=O)c1ccc(C(=O)OCc2nnc(-c3ccc(Cl)cc3)o2)cc1[N+](=O)[O-], the Potency is reported as inconclusive: 37.7 µM [inhibitor, single point].
In the case of COc1ccc(-n2c(=S)[nH]c3cc(C(=O)NCc4ccccc4)ccc3c2=O)c(OC)c1, the “activity change, negative = inhibition” value is reported as inactive: 0.653%.
In the case of O=C1Nc2ccc(Cl)cc2C(C#CC2CC2)(C(F)(F)F)O1 (stereo not drawn), the Potency is reported as inconclusive: 24.3 µM [inhibitor, partial curve] and inconclusive: 31.6 µM [inhibitor, single point].
With CCOc1ccccc1NC(=O)NNS(=O)(=O)c1cc(C)ccc1C the “activity change, negative = inhibition” value was inactive: -6.4%.
For O=C(NCc1nc2ccccc2[nH]1)C1=C[C@H](C2CCCCC2)C[C@H](OCc2ccc(CO)cc2)O1, the Potency was inconclusive: 35.5 µM [inhibitor, single point].
For Cc1ccc(Cc2cnc(NC(=O)/C(C#N)=C/c3ccc(-c4cccc([N+](=O)[O-])c4)o3)s2)cc1, the Potency was inconclusive: 28.2 µM [inhibitor, partial curve].
In the case of COc1ccc(OC)c2[nH]c(=O)c(CCNC(=O)c3cc4ccccc4o3)cc12, the “activity change, negative = inhibition” value is reported as inactive: -20.4%.
In the case of CCOc1ccc(Cl)cc1-c1cc(C(=O)Nc2ccc(Br)cc2)[nH]n1, the Potency is reported as inconclusive: 35.5 µM [inhibitor, single point].
With COc1ccccc1N1CCN(c2nnc(-c3ccc(F)cc3)c3ccccc23)CC1 the Potency was inconclusive: 22.4 µM [inhibitor, partial curve, poor fit].
In the case of COc1ccc(Cc2c(-c3ccc(F)cc3)nc3ccc(Cl)cn23)c(C)c1, the “activity change, negative = inhibition” value is reported as inactive: 18.7%.
For COc1cc(S(=O)(=O)N2CCC(O)(c3cccc(C(F)(F)F)c3)CC2)ccc1-n1cnnn1, the “activity change, negative = inhibition” value was inactive: -7.31%.
For CN(CC(=O)Nc1cccc(F)c1)CC(=O)Nc1cccc2ccccc12, the Potency was inconclusive: 39.8 µM [inhibitor, single point].
In the case of Clc1ccc(C(c2ccccc2)c2c[nH]c3ccccc23)s1 (stereo not drawn), the Potency is reported as inconclusive: 39.8 µM [inhibitor, single point].
For O=c1oc2cc(Br)ccc2n1CSC1=NCCS1, the “activity change, negative = inhibition” value was inactive: 34.3%.
In the case of CCn1cc(C(=O)NCCCN2CCCC(C)C2)c(=O)c2cc(S(=O)(=O)N3CCc4ccccc4C3)ccc21 (stereo not drawn), the Potency is reported as inconclusive: 28.2 µM [inhibitor, single point].
With COc1ccc(C(=O)/C=C/c2ccc3c(c2)OCCO3)cc1 the “activity change, negative = inhibition” value was inactive: 31.1%.
For Nc1cc(=O)[nH]c(SCC(=O)Nc2cc(Cl)cc(Cl)c2)n1, the Potency was inconclusive: 39.8 µM [inhibitor, single point].
For COc1cc(OC)cc(-c2cc3nc(C)c(CCC(=O)NCc4ccc(Cl)cc4)c(C)n3n2)c1, the Potency was inconclusive: 11.2 µM [inhibitor, partial curve].
In the case of CCN1/C(=C/C=C/C=C/C=C/c2sc3ccccc3[n+]2CC)Sc2ccccc21, the Potency is reported as inconclusive: 25.1 µM [inhibitor, partial curve, poor fit].
For CN(CC(=O)NCCc1ccc(S(N)(=O)=O)cc1)CC(=O)Nc1ccc(Cl)c(C(F)(F)F)c1, the Potency was inconclusive: 3.16 µM [inhibitor, partial curve, poor fit].
In the case of Cc1noc(NS(=O)(=O)c2ccc(NC(=O)CSc3nnc(-c4ccccc4)n3C3CCCCC3)cc2)c1C, the “activity change, negative = inhibition” value is reported as inactive: -7.08%.
In the case of CCN1CCN(CCNC(=O)c2ccc3c(c2)N(Cc2ccc(F)cc2)C(=O)/C(=C/c2ccccc2)S3)CC1, the Potency is reported as inconclusive: 39.8 µM [inhibitor, single point].
With CC1(C)NC(=O)N(c2ccc([N+](=O)[O-])c(C(F)(F)F)c2)C1=O the Potency was inconclusive: 24.3 µM [inhibitor, partial curve, poor fit].
With CCC1C/C(=C\c2cccnc2)C(=O)/C(=C/c2cccnc2)C1 (stereo not drawn) the Potency was active: 14.1 µM.
With COc1ccc(-c2oc3ccc(N4CCOCC4)cc3c2C#CCO)cc1 the Potency was inconclusive: 28.2 µM [inhibitor, single point].
For CCOC(=O)c1c(C)oc2c1C(=O)c1ccccc1C2=O, the Potency was inconclusive: 10 µM [inhibitor, partial curve].
With O=C(CC1C(=O)N(c2ccc(Cl)cc2)C(=S)N1CCc1ccncc1)Nc1ccc(F)cc1 (stereo not drawn) the Potency was inconclusive: 25.1 µM [inhibitor, single point].
In the case of CSc1ccc(C2NC(=O)c3ccccc3N2)cc1 (stereo not drawn), the “activity change, negative = inhibition” value is reported as inactive: 30.5%.
For CCCCN(C)C(=O)c1ccc(Nc2nc(C(N)CCc3ccccc3)cs2)nc1 (stereo not drawn), the Potency was inconclusive: 31.6 µM [inhibitor, single point].
For CN(C)Cc1ccc(-c2nc3cccc4c3n2CCNC4=O)cc1, the Potency was inconclusive: 35.5 µM [inhibitor, single point] and inconclusive: 43.2 µM [inhibitor, single point].
For Cc1cc(Nc2ccc(Cl)cc2)nc(NCc2ccccc2)n1, the Potency was inconclusive: 28.2 µM [inhibitor, single point].
With O=C(Nc1cccc(C(F)(F)F)c1)C1CCCN1S(=O)(=O)c1cccc2nsnc12 (stereo not drawn) the Potency was inconclusive: 35.5 µM [inhibitor, partial curve, poor fit].
For COc1cc2c(cc1OC)CN(c1ccc(-c3ccccc3OC)nn1)CC2, the Potency was inconclusive: 35.5 µM [inhibitor, single point].
With CC1Cc2ccccc2N1Cc1nc2cc(C(F)(F)F)ccc2c(=O)[nH]1 (stereo not drawn) the Potency was inconclusive: 28.2 µM [inhibitor, partial curve, poor fit].
For CN(C)c1ccc(CNC(=O)CCn2cccn2)cc1, the “activity change, negative = inhibition” value was inactive: 15.5%.
In the case of C#CCOCCOCCOCCNc1nc(N2CCN(C(=O)CCCCCCCCCCNC(=O)Cn3cc(CCCCCN)nn3)CC2)nc(N2CCN(C(=O)CCCCCCCCCCNC(=O)[C@@H](CCSC)n3cc(CCO)nn3)CC2)n1, the Potency is reported as inconclusive: 39.8 µM [inhibitor, single point].
With Cc1ccc(NC(=O)Cn2ncc(Cl)c(Cl)c2=O)cc1S(=O)(=O)N1CCCCC1 the Potency was inconclusive: 31.6 µM [inhibitor, single point].
For CC(C)OC(=O)c1ccc(NC(=O)CSc2nc3ncccc3[nH]2)cc1, the “activity change, negative = inhibition” value was inactive: -7.97%.
With Cc1ccc(Cl)cc1NC(=S)N(Cc1ccco1)C(C)c1cccs1 (stereo not drawn) the Potency was inconclusive: 20 µM [inhibitor, partial curve, poor fit].
With Cc1ccc(OCCCCNC2CCCC(C)C2C)c(C)c1 (stereo not drawn) the Potency was inconclusive: 39.8 µM [inhibitor, single point].
In the case of Cc1nnc(N/N=C/c2ccc(-c3ccc(Br)cc3)o2)n1N, the “activity change, negative = inhibition” value is reported as inactive: -32.6%.
With Cc1oc2ncnc(N3CCCCC3)c2c1C(=O)N1CCN(c2cccc(Cl)c2)CC1 the Potency was inconclusive: 31.6 µM [inhibitor, single point].
With COc1cc(CN2CCCC(C(=O)c3ccc4c5c(cccc35)CC4)C2)cc(OC)c1O (stereo not drawn) the Potency was inconclusive: 37.7 µM [inhibitor, single point].
In the case of Cc1ccnc(NC(=O)c2ccc(OCC3CCCO3)cc2)c1 (stereo not drawn), the Potency is reported as active: 5.62 µM.
In the case of CCCCn1c(N)c(S(=O)(=O)c2ccc(C)cc2)c2nc3ccccc3nc21, the Potency is reported as inconclusive: 39.8 µM [inhibitor, single point].
For O=C1CSC(=S)N1Nc1ccccc1, the Potency was inconclusive: 17.8 µM [inhibitor, partial curve, poor fit].
In the case of CSc1ccc(/C=C/c2nc3ccccc3n2S(=O)(=O)c2cccc(Cl)c2)cc1, the Potency is reported as inconclusive: 39.8 µM [inhibitor, single point].
For COc1cc(/C=C2/C(=O)CNC2=O)ccc1O, the “activity change, negative = inhibition” value was inactive: 6.51%.
With Cc1nn(C(C)C(=O)N2CCN(c3ccc(Cl)cc3)CC2)c(=O)c2cc3occc3n12 (stereo not drawn) the Potency was inconclusive: 22.4 µM [inhibitor, partial curve].
For CCOC(=O)N1CCC(Nc2c(N3CCN(c4cc(Cl)ccc4C)CC3)c(=O)c2=O)CC1, the Potency was inconclusive: 31.6 µM [inhibitor, partial curve, poor fit].
For O=C(Cn1nnc(-c2ccccc2)n1)N/N=C/c1ccc(-c2ccc(Cl)cc2)o1, the Potency was inconclusive: 33.6 µM [inhibitor, single point].
With O=C(NC(Cc1c[nH]c2ccccc12)C(=O)Nc1ccc(OC(F)(F)F)cc1)c1cccs1 (stereo not drawn) the activity change, negative = inhibition was inactive: 181% [at 11.3 µM].
In the case of CCOC(=O)C1CCN(C(=O)c2sc3ncnc(N4CCC(C)CC4)c3c2C)CC1, the “activity change, negative = inhibition” value is reported as inactive: -16.8%.
For Cc1ccc(CNC(=O)CSc2ncc(C(=O)Nc3ccccc3)c(=O)n2C)cc1, the Potency was inconclusive: 20 µM [inhibitor, partial curve].
For Cc1ccc(C(=O)NCCNc2nc3cc(C)c(C)cc3cc2C)cc1, the Potency was inconclusive: 31.6 µM [inhibitor, single point].
In the case of Cc1cccc(Cc2c(C)nc3c(-c4ccccc4)c(C)[nH]n3c2=O)c1, the Potency is reported as active: 12.6 µM.
With COc1cccc(C2C3CN(C)CC=C3C(C#N)=C(N)C2(C#N)C#N)c1OC (stereo not drawn) the “activity change, negative = inhibition” value was inactive: -2.59%.
On the % scale 0 is the no-effect control and ±100 the full control effect; potency means the concentration at half of the fitted maximal effect; tags describe the fitted curve by direction and shape.
